Test results from PubChem BioAssay AID504333 (National Center for Advancing Translational Sciences (NCATS), 2011).
Out of some 360,000 compounds screened, about 16,000 (4.4%) were called active. Inconclusive results, whose numbers are uncertain, are shown with a selection of clear calls. The call rests on the fitted dose curve; in most records, active means well fitted inhibition curve with a large enough effect; inconclusive means small, poorly fitted or top-dose-only effect; inactive means no such curve, though single readings can be large or run the other way. A potency beside an inconclusive call is a rough fit, not a confirmed value.
Further: nearly all actives have a fitted effect of over 60% in size.
On the % scale 0 is the no-effect control and ±100 the full control effect; potency means the concentration at half of the fitted maximal effect; tags describe the fitted curve by direction and shape.

These molecules were tested against Bromodomain adjacent to zinc finger domain protein 2B (Homo sapiens) (UniProt Q9UIF8) (assay: qHTS Assay for Inhibitors of BAZ2B). Details: AlphaScreen BAZ2B-H3K14Ac peptide displacement; activity change, negative = inhibition: at 114 µM (top of the series).
Sequence of UniProt Q9UIF8 (Q9UIF8 whole entry, looked up, the tested form may be a part): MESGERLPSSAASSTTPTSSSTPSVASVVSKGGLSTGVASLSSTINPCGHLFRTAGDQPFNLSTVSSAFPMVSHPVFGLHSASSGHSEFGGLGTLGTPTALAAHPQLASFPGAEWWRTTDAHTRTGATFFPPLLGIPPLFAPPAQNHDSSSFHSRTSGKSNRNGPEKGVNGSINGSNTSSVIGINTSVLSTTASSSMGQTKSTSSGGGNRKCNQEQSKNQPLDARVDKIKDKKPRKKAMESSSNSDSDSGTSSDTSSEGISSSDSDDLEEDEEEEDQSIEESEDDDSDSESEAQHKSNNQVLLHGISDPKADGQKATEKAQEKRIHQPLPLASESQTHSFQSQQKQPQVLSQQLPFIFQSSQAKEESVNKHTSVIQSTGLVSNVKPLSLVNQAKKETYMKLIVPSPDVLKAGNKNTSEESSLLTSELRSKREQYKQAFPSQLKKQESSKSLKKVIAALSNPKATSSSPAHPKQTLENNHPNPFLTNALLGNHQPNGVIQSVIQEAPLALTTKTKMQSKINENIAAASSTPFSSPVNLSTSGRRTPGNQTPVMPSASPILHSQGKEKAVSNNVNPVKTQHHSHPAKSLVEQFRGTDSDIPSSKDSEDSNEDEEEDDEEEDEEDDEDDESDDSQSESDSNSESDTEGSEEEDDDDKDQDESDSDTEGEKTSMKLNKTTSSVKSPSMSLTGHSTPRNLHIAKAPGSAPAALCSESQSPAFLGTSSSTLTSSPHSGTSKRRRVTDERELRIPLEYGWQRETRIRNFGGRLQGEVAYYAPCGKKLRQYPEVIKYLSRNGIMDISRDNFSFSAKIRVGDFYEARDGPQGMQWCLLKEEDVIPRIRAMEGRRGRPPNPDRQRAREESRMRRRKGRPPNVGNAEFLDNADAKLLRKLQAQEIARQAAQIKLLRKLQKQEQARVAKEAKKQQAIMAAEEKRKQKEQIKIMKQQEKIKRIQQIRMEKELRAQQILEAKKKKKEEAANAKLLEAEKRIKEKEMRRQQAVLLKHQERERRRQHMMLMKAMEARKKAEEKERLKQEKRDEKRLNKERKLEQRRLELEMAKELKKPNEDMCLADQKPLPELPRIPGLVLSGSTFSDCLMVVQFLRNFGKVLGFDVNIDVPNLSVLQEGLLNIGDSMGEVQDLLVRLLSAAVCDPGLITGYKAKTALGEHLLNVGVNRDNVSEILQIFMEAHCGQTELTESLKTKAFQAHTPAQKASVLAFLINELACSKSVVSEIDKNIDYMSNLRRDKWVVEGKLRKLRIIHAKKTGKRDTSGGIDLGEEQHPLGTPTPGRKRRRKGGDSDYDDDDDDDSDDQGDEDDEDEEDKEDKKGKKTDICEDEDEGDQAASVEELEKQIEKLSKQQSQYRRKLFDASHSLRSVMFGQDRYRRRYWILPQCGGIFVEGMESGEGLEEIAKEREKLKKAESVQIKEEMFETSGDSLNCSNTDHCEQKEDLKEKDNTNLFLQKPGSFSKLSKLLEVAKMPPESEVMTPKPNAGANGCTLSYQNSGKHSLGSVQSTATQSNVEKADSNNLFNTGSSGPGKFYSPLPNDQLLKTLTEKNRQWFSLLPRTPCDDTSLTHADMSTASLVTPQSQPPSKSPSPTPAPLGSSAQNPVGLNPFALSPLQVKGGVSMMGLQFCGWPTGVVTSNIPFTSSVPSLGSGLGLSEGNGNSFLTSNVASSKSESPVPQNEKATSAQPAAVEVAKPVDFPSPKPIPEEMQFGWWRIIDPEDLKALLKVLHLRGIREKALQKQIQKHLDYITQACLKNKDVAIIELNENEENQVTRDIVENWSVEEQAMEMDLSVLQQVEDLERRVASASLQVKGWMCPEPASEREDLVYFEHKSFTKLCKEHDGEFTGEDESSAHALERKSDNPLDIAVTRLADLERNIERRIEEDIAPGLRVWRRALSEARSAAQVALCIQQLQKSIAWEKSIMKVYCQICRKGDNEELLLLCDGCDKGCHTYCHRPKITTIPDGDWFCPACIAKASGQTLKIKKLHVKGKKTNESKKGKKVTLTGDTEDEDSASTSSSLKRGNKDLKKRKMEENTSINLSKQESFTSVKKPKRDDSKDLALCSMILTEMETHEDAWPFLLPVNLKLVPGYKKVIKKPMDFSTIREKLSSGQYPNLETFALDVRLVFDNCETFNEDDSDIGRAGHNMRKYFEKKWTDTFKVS
Procedure, shortened: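 Protein-peptide AlphaScreen: BAZ2B 50 nM, b-H3K14Ac 50 nM, 1x PBS pH 7.4 + 0.01% Tween-20. Preincubation 30 min RT; cpd 30 min RT (top 110 uM); beads 20 min RT, light-protected.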
With `COc1ccc(N2CCN(Cc3nc4c(c(=O)[nH]c(=O)n4C)n3Cc3cccc(Cl)c3)CC2)cc1` the Potency was inconclusive: 50.1 µM [inhibitor, partial curve]. For `COc1cccc(/C=C2\SC(=S)N(CCC(=O)NC3C=CS(=O)(=O)C3)C2=O)c1` (stereo not drawn), the Potency was inconclusive: 89.1 µM [inhibitor, single point]. `Cn1cccc1C(=O)OCc1cc(-c2ccco2)on1` was tested, and the Potency was inconclusive: 89.1 µM [inhibitor, single point]. `CSc1ncccc1C(=O)OCC(=O)NC1CCCCC1` was tested, and the “activity change, negative = inhibition” value was inactive: 10.1%. For `Cc1cccc(N2CCN(C(=O)C3CC(=O)N(c4ccc5c(c4)OCCO5)C3)CC2C)c1` (stereo not drawn), the Potency was inconclusive: 89.1 µM [inhibitor, single point]. `COc1ccccc1N1CCN(CC(O)COc2ccc3c(c2)OCO3)CC1` (stereo not drawn) was tested, and the Potency was inconclusive: 79.4 µM [inhibitor, single point]. For `C=CCNC(=O)CN1CCN(C(c2ccccc2)c2ccccc2)CC1`, the Potency was active: 50.1 µM. For `Cc1ccc(-c2[nH]c3cc(C(=O)NCCCn4ccnc4)ccc3c(=O)c2O)cc1`, the Potency was active: 56.2 µM. With `CCOc1cc(-c2nnc(SCC(=O)Nc3ccc(F)c(F)c3)nc2-c2ccc(OC)c(OCC)c2)ccc1OC` the Potency was inconclusive: 63.1 µM [inhibitor, partial curve, poor fit]. In the case of `CC(C)CCn1c(=O)c2ccccc2n2c(CN3CCCC3)nnc12`, the Potency is reported as inconclusive: 39.8 µM [inhibitor, full curve, poor fit]. For `O=C(Nc1ccc(N2CCCC2)cc1)c1ccccc1F`, the Potency was inconclusive: 70.8 µM [inhibitor, single point]. In the case of `Cc1cc(C)cc(-n2c(C)cc(/C=N/NC(=O)CSc3ncccn3)c2C)c1`, the Potency is reported as inconclusive: 89.1 µM [inhibitor, single point]. In the case of `CC(=O)c1ccc(N2CCN(C(=S)Nc3ccccc3)CC2)cc1`, the “activity change, negative = inhibition” value is reported as inactive: -3.89%. With `O=c1c2ccccc2nc(-c2ccoc2)n1CCc1ccccc1` the Potency was inconclusive: 44.7 µM [inhibitor, partial curve]. With `Cc1ccc(C(=O)Nc2nc3ccccc3n3nnnc23)cc1` the Potency was inconclusive: 100 µM [inhibitor, single point]. For `Cc1ccc(-c2cc(C(F)(F)F)n3nc(C(=O)Nc4ccc(Cl)c(C(F)(F)F)c4)cc3n2)cc1`, the “activity change, negative = inhibition” value was inactive: -19.3%. `CCOC(=O)c1csc(N/N=C2\CCCc3ccccc32)n1` was tested, and the Potency was inconclusive: 44.7 µM [inhibitor, partial curve]. `Cc1cc2c(cc(C(=O)NCc3cccnc3)n2Cc2ccc(Cl)cc2)o1` was tested, and the Potency was inconclusive: 44.7 µM [inhibitor, partial curve]. In the case of `Cc1cc(Cl)c(OCCOCCN2CCCC(C)C2)c(Br)c1` (stereo not drawn), the Potency is reported as active: 56.2 µM. For `c1ccc(N2CCN(c3ccccc3)C2c2ccncc2)cc1`, the Potency was inconclusive: 79.4 µM [inhibitor, single point]. `O=C(Cc1ccc(Br)cc1)Nc1cccc(-c2cn3c(n2)SCC3)c1` was tested, and the Potency was inconclusive: 14.1 µM [inhibitor, full curve]. For `CCC(CO)Oc1cc(NC(=O)c2cccc(Cl)c2)c2ncn(C(C)C)c2c1` (stereo not drawn), the Potency was active: 79.4 µM. `Oc1c(Cl)cc(Cl)cc1C=Nc1ccccc1N1CCCC1` was tested, and the Potency was active: 44.7 µM. `COCCCn1c(=O)/c(=C\c2ccccc2OC(C)C)s/c1=C(/C#N)C(=O)Nc1ccc(C(=O)O)cc1` was tested, and the Potency was active: 50.1 µM. In the case of `CCCCCC(/C=N/Nc1ccc(S(=O)(=O)N2CCOCC2)cc1[N+](=O)[O-])=C\c1ccccc1`, the Potency is reported as inconclusive: 35.5 µM [inhibitor, partial curve]. With `O=C(CN1CCCc2ccccc21)NC(=O)NC1CCCCC1` the Potency was inconclusive: 70.8 µM [inhibitor, partial curve]. `C=CCOc1ccc(CN(C)CC(=O)Nc2ccc3c(c2)CCC3)cc1` was tested, and the Potency was active: 50.1 µM. With `N#Cc1c(NCCN)nc(NCc2ccccc2)c2c1CCN(Cc1ccccc1)C2` the Potency was inconclusive: 70.8 µM [inhibitor, single point]. With `CCN1CCN(C(c2ccccc2)c2nnnn2Cc2ccccc2)CC1` (stereo not drawn) the Potency was inconclusive: 89.1 µM [inhibitor, single point]. In the case of `COc1cc(NC(=O)c2ccco2)c(C(=O)O)cc1OC`, the Potency is reported as inconclusive: 89.1 µM [inhibitor, single point]. With `CCCCCC(=O)Nc1nnn(CCC)n1` the Potency was inconclusive: 89.1 µM [inhibitor, single point]. With `COc1ccc(C(=O)n2cnnc2N)cc1` the “activity change, negative = inhibition” value was inactive: -9.23%. For `COc1ccccc1C(=O)NCCC(=O)Nc1ncccc1O`, the “activity change, negative = inhibition” value was inactive: 5.82%. With `Cc1csc(Nc2nc(N)c(C(=O)Nc3ccccc3)o2)n1` the Potency was inconclusive: 79.4 µM [inhibitor, single point]. For `COc1ccc(-c2nnc(C3CCN(C(=O)c4ccccc4F)CC3)o2)cc1`, the Potency was inconclusive: 70.8 µM [inhibitor, single point]. `CC1(c2ccccc2Cl)NC(=O)N(CC(=O)NC(=O)NCc2ccco2)C1=O` (stereo not drawn) was tested, and the Potency was inconclusive: 50.1 µM [inhibitor, partial curve]. In the case of `CCC/C(O)=C1\C(=O)CCCC1=NCCc1c(C)[nH]c2ccc(OC)cc12`, the Potency is reported as inconclusive: 56.2 µM [inhibitor, partial curve]. `O=C1CCCC2=C1C(c1ccc(Cl)cc1)C1C(=O)c3ccccc3C1=N2` (stereo not drawn) was tested, and the Potency was inconclusive: 31.6 µM [inhibitor, full curve]. For `Cc1cccc2nc(COc3ccc4ccccc4c3Br)cn12`, the Potency was inconclusive: 35.5 µM [inhibitor, partial curve]. With `CCn1cc(CCCC(=O)NCc2ccc(OC)cc2)c2ccccc21` the Potency was inconclusive: 70.8 µM [inhibitor, partial curve]. In the case of `COc1ccc(CNc2cc(C)cc(C)c2)cc1OC`, the Potency is reported as inconclusive: 79.4 µM [inhibitor, single point]. `Cc1c(C2=CCN(S(=O)(=O)c3ccc(Cl)cc3)CC2)c2ccccc2n1C` was tested, and the Potency was inconclusive: 8.91 µM [inhibitor, full curve]. In the case of `O=C(O)c1[nH]c2ccccc2c1NS(=O)(=O)c1ccc(F)cc1`, the Potency is reported as inconclusive: 89.1 µM [inhibitor, single point]. In the case of `O=C(NC1CCN(S(=O)(=O)c2ccccc2)CC1)c1cccc(F)c1`, the Potency is reported as inconclusive: 89.1 µM [inhibitor, single point]. With `Cc1ccc2nc(SCC(=O)c3c(N)n(C)c(=O)n(C)c3=O)[nH]c2c1` the Potency was inconclusive: 79.4 µM [inhibitor, single point]. `COc1ccccc1NS(=O)(=O)c1ccc(NN=C2CCCCC2)c([N+](=O)[O-])c1` was tested, and the Potency was active: 8.91 µM. For `CCc1c(C(=O)NNC(=S)NCc2ccccc2)csc1C`, the Potency was inconclusive: 89.1 µM [inhibitor, single point]. With `O=[N+]([O-])c1ccc(OCC(O)CN(CCO)CCO)cc1` (stereo not drawn) the “activity change, negative = inhibition” value was inactive: -7.09%. In the case of `COc1ccc(OCCn2cc(C(=O)C3CCCCC3)c3ccccc32)cc1`, the “activity change, negative = inhibition” value is reported as inactive: 15.3% [at 57.1 µM]. With `COc1ccccc1CN1CCN(Cc2ccc3ccccc3c2)CC1` the Potency was active: 22.4 µM. For `Cc1ccc(S(=O)(=O)NC(=O)Nc2ccc(C)cn2)cc1`, the “activity change, negative = inhibition” value was inactive: -9.14%. For `COc1cccc(N2CCN(C(=O)c3cnn(C(C)(C)C)c3C3CCN(C(=O)OC(C)(C)C)CC3)CC2)c1`, the “activity change, negative = inhibition” value was inactive: 2.07% [at 57.1 µM]. `CC1CCN(Cc2c(O)ccc3c(=O)c(-c4cccc(Cl)c4)c(C(F)(F)F)oc23)CC1` was tested, and the “activity change, negative = inhibition” value was inactive: 1.86%. In the case of `COc1cc(OC)cc(C(=O)N2CCN(C3CCN(Cc4ccccc4)CC3)CC2)c1`, the Potency is reported as active: 14.1 µM. With `C/C(=N\NC(=O)c1ccc(Br)o1)c1cc2c(cc1NC(=O)CCC(=O)O)OCO2` the Potency was inconclusive: 79.4 µM [inhibitor, single point]. With `COC(=O)[C@@]1(Cc2ccc(OC)cc2)[C@H]2c3cc(C(=O)N(C)C)n(C[C@H](O)CO)c3C[C@H]2CN1C(=O)c1ccccc1` the Potency was inconclusive: 79.4 µM [inhibitor, partial curve]. With `Cc1ccc(Nc2nc(-c3cccs3)cs2)nc1` the Potency was inconclusive: 50.1 µM [inhibitor, partial curve]. For `COc1ccc(/C=N/Nc2cc(C)nc3ccccc23)cc1`, the Potency was inconclusive: 89.1 µM [inhibitor, single point]. With `CCCn1c(SCC(=O)c2cc(C)n(-c3ccc4c(c3)OCO4)c2C)n[nH]c1=O` the Potency was inconclusive: 39.8 µM [inhibitor, partial curve]. For `Cc1ccc2[nH]c(O)c(N=Nc3ccccc3C)c2c1`, the Potency was inconclusive: 89.1 µM [inhibitor, single point]. In the case of `CCc1c(C)sc2nc3c(C(=O)N4CCOCC4)cc(C(=O)c4ccccc4O)cn3c(=O)c12`, the Potency is reported as inconclusive: 35.5 µM [inhibitor, full curve, poor fit]. In the case of `COc1ccc([N+](=O)[O-])cc1NCc1cccc([N+](=O)[O-])c1`, the Potency is reported as inconclusive: 31.6 µM [inhibitor, partial curve]. With `COc1ccc(N2C(=O)C(CC(=O)O)S/C2=C\C(C)=O)cc1` (stereo not drawn) the Potency was inconclusive: 89.1 µM [inhibitor, single point]. `O=C(CN1CCN(c2ccc(Cl)cc2)CC1)NCc1ccccc1` was tested, and the “activity change, negative = inhibition” value was inactive: -8.03%. In the case of `CC(=O)C1C(=O)c2c(cccc2[N+](=O)[O-])C1=Nc1ccc(S(N)(=O)=O)cc1` (stereo not drawn), the Potency is reported as inconclusive: 22.4 µM [inhibitor, partial curve]. `Cc1cccc(OC(=O)c2cncc(Br)c2)c1` was tested, and the “activity change, negative = inhibition” value was inactive: 29.9%. `COc1cccc(N2CCN(S(=O)(=O)c3ccc4[nH]c5c(c4c3)CCCC5)CC2)c1` was tested, and the Potency was inconclusive: 28.2 µM [inhibitor, partial curve]. `Cn1ccnc1SC(=O)N1c2ccccc2Sc2ccccc21` was tested, and the Potency was inconclusive: 89.1 µM [inhibitor, single point].
